# From the supplement of paper PMC8728848
# This is one part of the list.
# B1: PitA (Streptococcus oralis), G3F8D8 (protein)
# chain: MNIRFDFKKVQIIARRLVTLLAILFLCAPISLLNADSTTEPQTTLHKTITPISGQDDKYELSLDITSKLGTETQTDPLDVVLVADLSGSMQNQDVQSFDGRTISRIDALKNTLRGTNGRKGLIDTILSNSNNRLSMVGFGGKIDNKKVDQYWDGNKWRLFRPYWPYERMTKYYDGVSPWDDANTILGWSNNARAAKTAVYNMSIAGGNSIGTESGIGTGTNIGAGLTLANQLMGSARSNAKKVVILLSDGFANMVYDANGYTIYNYNNEDPNIETAPQWFWDRLNNNLNSLSYSLAPTLDGFYSIKFRYSNNVDSITSLQYYMRQHNASIPNEIFSANDEDQLRDSFKDITDKILPLGIHHVSIKDVLSKYVQLLPNGSSEFRVVKEKDGSSEILIENQVTFDTKTTSEGLVEVTAKFSPNYSLEDGARYVLKFTVTSSQEALDAIAGDKKLEAGDAEGSDVNKLYSNKGASVTYSYGIGNSQTKTKEYSDNPTFKPSDPLTVPVEVEWQGVTGARTVITADQPSNVELKLVQKNKNGGSDNQDYRKTNVNVSKNVSNETRNFEKVAKGYQYDLIAPDVPAFTKEIKNVGTESKPSFKVIYKQLPSLTIKKVLEAENNLNKEFRIKVKLTSPDSKPLNGTFGEITVVNGEAEIRVEKRKRWEGILSYLPRGTHYKVEEEAASTNGYHVTYENQEGDLNKDETSIVTNHKLPSLSVTKKVTGVFANLLKSFKITINIRDAQNSPLNGTYTATVNNKRTPLQFTNGRASIDLNKDQTIKIYGLPLDSHYTVEEESNSSRGYQVSYENQEGKLDGDKSATVTNNKNSVPETGVDFLSSTLMLGIILPLGGIFFTILLGYLVVHRRK
# Legend:
# Experiment in all cases: glycan array binding signal (z-score within array); higher = stronger binding
# Conditions in all cases: glycan notation: IUPAC condensed, linker removed
# [1] = target: Fuc(a1-3)[Gal(b1-4)]GlcNAc(b1-4)Gal(b1-4)[Fuc(a1-3)]GlcNAc
# How it was run: (§1)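 From the Consortium for Functional Glycomics database, 3228 arrays were curated, keeping only those whose protein sequence was available. Binding is given as a within-array Z-score averaged across arrays sharing a protein sequence and across linkers. Negative Z-scores can be read as non-binding.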
# [2] = target: Fuc(a1-3)[Gal(b1-4)]GlcNAc(b1-4)Gal(b1-4)[Fuc(a1-3)]GlcNAc(b1-4)Gal(b1-4)[Fuc(a1-3)]GlcNAc
# How it was run: as §1
# [3] = target: Fuc(a1-3)[Gal(b1-4)]GlcNAc(b1-6)GalNAc
# How it was run: as §1
# [4] = target: Fuc(a1-3)[Gal(b1-4)]GlcNAc(b1-6)[Gal(b1-3)GlcNAc(b1-3)]Gal(b1-4)Glc
# How it was run: as §1
# [5] = target: Fuc(a1-3)[Gal(b1-4)]GlcNAc(b1-6)[Neu5Ac(a2-3)Gal(b1-3)]GalNAc
# How it was run: as §1
# [6] = target: Fuc(a1-3)[Gal(b1-4)]GlcNAc6S
# How it was run: as §1
# [7] = target: Fuc(a1-3)[Gal3S(b1-4)]GlcNAc
# How it was run: as §1
# [8] = target: Fuc(a1-3)[Gal3S(b1-4)]GlcNAc6S
# How it was run: as §1
# [9] = target: Fuc(a1-3)[GalNAc(b1-4)]GlcNAc
# How it was run: as §1
# [10] = target: Fuc(a1-3)[GalNAc(b1-4)]GlcNAc6S
# How it was run: as §1
# [11] = target: Fuc(a1-3)[GalNAc3S(b1-4)]GlcNAc
# How it was run: as §1
# Fuc(a1-4)GlcNAc = target: Fuc(a1-4)GlcNAc
# How it was run: as §1
# Fuc(b1-3)GlcNAc = target: Fuc(b1-3)GlcNAc
# How it was run: as §1
# Gal(a1-2)Gal = target: Gal(a1-2)Gal
# How it was run: as §1
# Gal(a1-3)Gal = target: Gal(a1-3)Gal
# How it was run: as §1
# Gal(a1-3)Gal(b1-3)GlcNAc = target: Gal(a1-3)Gal(b1-3)GlcNAc
# How it was run: as §1
# [12] = target: Gal(a1-3)Gal(b1-3)GlcNAc(b1-2)Man(a1-3)[Gal(a1-3)Gal(b1-3)GlcNAc(b1-2)Man(a1-6)]Man(b1-4)GlcNAc(b1-4)GlcNAc
# How it was run: as §1
# [13] = target: Gal(a1-3)Gal(b1-3)GlcNAc(b1-3)GalNAc
# How it was run: as §1
# [14] = target: Gal(a1-3)Gal(b1-3)GlcNAc(b1-6)GalNAc
# How it was run: as §1
# [15] = target: Gal(a1-3)Gal(b1-3)[Fuc(a1-4)]GlcNAc(b1-2)Man(a1-3)[Gal(a1-3)Gal(b1-3)[Fuc(a1-4)]GlcNAc(b1-2)Man(a1-6)]Man(b1-4)GlcNAc(b1-4)GlcNAc
# How it was run: as §1
# Gal(a1-3)Gal(b1-4)Glc = target: Gal(a1-3)Gal(b1-4)Glc
# How it was run: as §1
# Gal(a1-3)Gal(b1-4)GlcNAc = target: Gal(a1-3)Gal(b1-4)GlcNAc
# How it was run: as §1
# [16] = target: Gal(a1-3)Gal(b1-4)GlcNAc(b1-3)GalNAc
# How it was run: as §1
# [17] = target: Gal(a1-3)Gal(b1-4)GlcNAc(b1-6)GalNAc
# How it was run: as §1
# [18] = target: Gal(a1-3)Gal(b1-4)[Fuc(a1-3)]GlcNAc
# How it was run: as §1
# [19] = target: Gal(a1-3)Gal(b1-4)[Fuc(a1-3)]GlcNAc(b1-2)Man(a1-3)[Gal(a1-3)Gal(b1-4)[Fuc(a1-3)]GlcNAc(b1-2)Man(a1-6)]Man(b1-4)GlcNAc(b1-4)GlcNAc
# How it was run: as §1
# Gal(a1-3)GalNAc = target: Gal(a1-3)GalNAc
# How it was run: as §1
# [20] = target: Gal(a1-3)[Gal(a1-4)]Gal(b1-4)GlcNAc
# How it was run: as §1
# [21] = target: Gal(a1-4)Gal(b1-3)GlcNAc(b1-2)Man(a1-3)[Gal(a1-4)Gal(b1-3)GlcNAc(b1-2)Man(a1-6)]Man(b1-4)GlcNAc(b1-4)GlcNAc
# How it was run: as §1
# Gal(a1-4)Gal(b1-4)Glc = target: Gal(a1-4)Gal(b1-4)Glc
# How it was run: as §1
binder,measurement,setting,value
B1,glycan array binding signal (z-score),[1],0.05
same,glycan array binding signal (z-score),[2],-0.375
same,glycan array binding signal (z-score),[3],4.67
same,glycan array binding signal (z-score),[4],-0.739
same,glycan array binding signal (z-score),[5],0.046
same,glycan array binding signal (z-score),[6],0.782
same,glycan array binding signal (z-score),[7],-0.455
same,glycan array binding signal (z-score),[8],2.16
same,glycan array binding signal (z-score),[9],-0.019
same,glycan array binding signal (z-score),[10],-0.59
same,glycan array binding signal (z-score),[11],-0.108
same,glycan array binding signal (z-score),Fuc(a1-4)GlcNAc,-0.34
same,glycan array binding signal (z-score),Fuc(b1-3)GlcNAc,0.191
same,glycan array binding signal (z-score),Gal(a1-2)Gal,-0.212
same,glycan array binding signal (z-score),Gal(a1-3)Gal,-0.309
same,glycan array binding signal (z-score),Gal(a1-3)Gal(b1-3)GlcNAc,-0.011
same,glycan array binding signal (z-score),[12],3.83
same,glycan array binding signal (z-score),[13],1.07
same,glycan array binding signal (z-score),[14],-0.069
same,glycan array binding signal (z-score),[15],1.2
same,glycan array binding signal (z-score),Gal(a1-3)Gal(b1-4)Glc,-0.425
same,glycan array binding signal (z-score),Gal(a1-3)Gal(b1-4)GlcNAc,-0.128
same,glycan array binding signal (z-score),[16],-0.028
same,glycan array binding signal (z-score),[17],-0.41
same,glycan array binding signal (z-score),[18],-0.592
same,glycan array binding signal (z-score),[19],1.4
same,glycan array binding signal (z-score),Gal(a1-3)GalNAc,-0.289
same,glycan array binding signal (z-score),[20],-0.208
same,glycan array binding signal (z-score),[21],1.42
same,glycan array binding signal (z-score),Gal(a1-4)Gal(b1-4)Glc,-0.046
